# Measured values: publication PMC4336329 (PLoS ONE, 2015)
# Out of some 310,000 compounds screened, about 2,200 (0.71%) showed an effect of 50% or more. The effect is printed as a negative number. Some of the results follow.
# Biological target: human ether-à-go-go-related gene (hERG) potassium channel (human, UniProt Q12809)
# Experiment: primary screen, population patch clamp on CHO cells stably expressing hERG
# human ether-à-go-go-related gene (hERG) potassium channel, sequence (Q12809 whole entry, looked up): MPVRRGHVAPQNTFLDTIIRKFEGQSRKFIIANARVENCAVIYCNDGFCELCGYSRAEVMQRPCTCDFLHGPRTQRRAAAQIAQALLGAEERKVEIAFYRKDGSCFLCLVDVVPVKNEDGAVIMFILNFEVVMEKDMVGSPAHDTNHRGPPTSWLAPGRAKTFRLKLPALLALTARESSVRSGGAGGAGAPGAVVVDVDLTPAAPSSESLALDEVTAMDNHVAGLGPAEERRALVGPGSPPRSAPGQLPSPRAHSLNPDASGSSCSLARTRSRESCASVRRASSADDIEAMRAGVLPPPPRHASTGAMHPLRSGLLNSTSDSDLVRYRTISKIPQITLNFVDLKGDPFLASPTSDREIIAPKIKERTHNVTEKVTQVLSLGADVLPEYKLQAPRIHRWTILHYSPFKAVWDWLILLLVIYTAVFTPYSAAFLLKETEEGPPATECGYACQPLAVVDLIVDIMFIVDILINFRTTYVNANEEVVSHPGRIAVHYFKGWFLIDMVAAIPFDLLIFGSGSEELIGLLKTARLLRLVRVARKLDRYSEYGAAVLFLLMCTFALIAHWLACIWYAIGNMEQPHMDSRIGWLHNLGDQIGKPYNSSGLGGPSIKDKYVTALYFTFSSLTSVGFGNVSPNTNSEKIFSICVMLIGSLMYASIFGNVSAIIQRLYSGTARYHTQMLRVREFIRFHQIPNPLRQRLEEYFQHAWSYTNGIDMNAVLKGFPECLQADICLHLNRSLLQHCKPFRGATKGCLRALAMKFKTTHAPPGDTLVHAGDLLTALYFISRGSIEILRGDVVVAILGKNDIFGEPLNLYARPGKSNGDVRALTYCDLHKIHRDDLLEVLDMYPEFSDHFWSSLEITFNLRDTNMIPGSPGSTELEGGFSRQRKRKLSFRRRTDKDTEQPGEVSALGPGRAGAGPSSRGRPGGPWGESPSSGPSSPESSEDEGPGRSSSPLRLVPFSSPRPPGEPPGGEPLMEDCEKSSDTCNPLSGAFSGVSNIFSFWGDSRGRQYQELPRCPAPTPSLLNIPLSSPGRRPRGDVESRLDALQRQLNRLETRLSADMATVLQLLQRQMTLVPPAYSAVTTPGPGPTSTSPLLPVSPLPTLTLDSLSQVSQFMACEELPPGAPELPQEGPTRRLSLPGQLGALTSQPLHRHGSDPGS
row,Compound,"hERG current change (%, negative = inhibition) at 1uM [%]"
1,CCOc1cc([C@H]2[C@@H]3CCCC[C@]3(O)CCN2CC(=O)NCc2ccco2)ccc1O,8.54
2,Cc1onc(-c2ccccc2)c1C1=N/C(=C\c2ccccc2F)C(=O)O1,-0.736
3,O=C(Nc1ccon1)c1ccc(Cl)c(S(=O)(=O)N2CCCCC2)c1,8.74
4,Cn1c(=O)[nH]c(=O)c2c1nc(SCC(O)CO)n2Cc1ccccc1Cl (stereo not drawn),5
5,O=C(COc1ncnc2cc(Cl)ccc12)c1ccc2c(c1)OCCO2,11.8
6,O=C(Nc1ccccc1)c1cccnc1N1CCOCC1,15.7
7,O=C(COC(=O)C1CCN(/C=C/C(=O)C(F)(F)F)CC1)Nc1ccccc1,15.4
8,S=C(NCc1ccco1)N1CCN(C(c2ccccc2)c2ccccc2)CC1,3.75
9,CCCCN(Cc1ccccc1)C(=O)CCN1C(=O)C2C3C=CC(C3)C2C1=O (stereo not drawn),6.56
10,CCC(C)(C)n1nnnc1C(c1ccc(F)cc1)N1CCC(C(N)=O)CC1.Cl (stereo not drawn),-14.4
11,CCS(=O)(=O)c1ncc(Cl)c(C(=O)Nc2ccc(C)cc2)n1,20
12,Cc1ccc(-c2cc(C(=O)N/N=C/c3ccc(F)cc3)n[nH]2)o1,6.91
13,Cn1c(=O)c2c(O)c(C=Nc3ccc(F)cc3)c(=O)n(C)c2n(C)c1=O,12.1
14,O=C1OC(OC2CCCCC2)(c2ccccc2)c2ccccc21 (stereo not drawn),-5.89
15,Cc1ccc(S(=O)(=O)NCC2CCC(C(=O)O)CC2)cc1 (stereo not drawn),3.22
16,Cc1ccc(C(=O)c2ccc(N3CCOCC3)c(F)c2)cc1,3.78
17,O=C(Nc1ccncc1)c1ccc(NS(=O)(=O)c2ccc3[nH]c(=O)[nH]c3c2)cc1,29.2
18,CC1(C)N=C(N)N=C(N)N1c1ccc(F)cc1F.Cl,11.1
19,Cc1ccc(O)c(NC(=O)CCCC(=O)O)c1,6.78
20,NS(=O)(=O)c1ccc(N/N=C/c2ccc3c(c2)OCO3)c([N+](=O)[O-])c1,9.69
21,COc1cc(C(=O)NC(=S)Nc2ccc(Cc3ccncc3)cc2)cc(OC)c1OC,-45.1
22,COc1ccc(C(=O)Oc2ccc3oc(=O)sc3c2)cc1,-3.06

row,Compound,"hERG current change (%, negative = inhibition) at 1uM [%]"
1,C[C@H](NC(=O)c1nc[nH]c1C(=O)N[C@@H](C)C(=O)OC(C)(C)C)C(=O)OCc1ccccc1,-3.23
2,Cc1nnc(NC(=O)Cn2cnc3c2c(=O)n(C)c(=O)n3C)s1,9.94
3,C=CCN(C(=O)CCC(=O)Nc1cc(C)on1)C(C(=O)NC(C)(C)C)c1ccc(OC)cc1 (stereo not drawn),0.158
4,O=C(CN1CCCCCC1)Nc1c(Cl)cc(Cl)cc1Cl,12.1
5,Cc1ccc(S(=O)(=O)NCC(=O)Nc2ccc3c(c2)OCCO3)cc1,17.5
6,COc1ccc2[nH]c(=O)c3c(c2c1)OC(C)(C)C=C3,11.1
7,CCC(C)[C@H]1COCCS(=O)(=O)N1Cc1ccccc1F (stereo partly drawn),-1.13
8,Cl.NC(=S)NC(c1ccccc1)c1ccncc1 (stereo not drawn),6.39
9,COc1cccc(OC)c1-c1nn2c(-c3cc(-c4ccccc4)n[nH]3)nnc2s1,10.4
10,O=C(Cc1ccccc1)NNC1CC(=O)N(c2ccccc2)C1=O (stereo not drawn),11.4
11,COc1ccccc1C1=NOC(C)(c2nnc(Cc3ccccc3)o2)C1 (stereo not drawn),5.91
12,O=C(Nc1ccc(F)cc1)N(CCCN1CCOCC1)Cc1cc2cc3c(cc2[nH]c1=O)OCO3,-16
13,CN(C)S(=O)(=O)c1cccc(C(=O)NCCc2ccccc2)c1,-0.187
14,CS(=O)(=O)N(CC(=O)NC1CCCCC1)c1cccc(Cl)c1,11.7
15,Cc1ccc(N(C(=O)Cc2cccs2)C(C(=O)NCC2CCCO2)c2ccncc2)cc1 (stereo not drawn),6.88
16,O=S(=O)(c1ccc(NC(=S)N2CCN(c3ccccc3F)CC2)cc1)N1CCOCC1,12.4
17,Cc1cc(N)n(-c2ccc(S(=O)(=O)N3CCCC3)cc2[N+](=O)[O-])n1,8.72
18,CC(Oc1ccccc1)C(=O)Nc1ccc(C(N)=O)cc1 (stereo not drawn),-15.4
19,Nc1ccc2c(c1)CC(=O)c1ccccc1S2,13.8
20,Cc1cnc(NC(=O)c2ccc(F)c(S(=O)(=O)N3CCOCC3)c2)s1,5.65
21,Cc1cc(C(F)(F)F)nn1CC(=O)N(C)C1CCCCC1,15.5
22,Cc1ccc(S(=O)(=O)Nc2ccccc2F)cc1C(=O)NCc1ccco1,9.28

row,Compound,"hERG current change (%, negative = inhibition) at 1uM [%]"
1,CN(C)c1nc(Cl)nc(N(C#N)CCOc2ccccc2)n1,11.1
2,Cc1ccc(S(=O)(=O)C2(C(=O)NC3CCCC3)CC2)cc1,-4.82
3,COc1cc2cc(CCCOC(=O)c3ccc(C#N)cc3)oc(=O)c2cc1OC,0.229
4,COc1ccc(-c2nc(C)ncc2N=Nc2ccccc2)cc1,7.74
5,Cc1cccn2c(=O)c(C=O)c(Nc3ccccc3)nc12,-1.11
6,CCOC(=O)c1ccc(S(=O)(=O)Nc2ccc(N3CCOCC3)cc2)cc1,14.7
7,COc1ccc(C(=O)COc2ccc3c(C)cc(=O)oc3c2)cc1,15.3
8,CCCn1c(SCc2cc(=O)oc3ccc4ccccc4c23)n[nH]c1=O,6.93
9,COc1ccc(C(=O)OCCOc2cccc(Cl)c2)cc1S(=O)(=O)N1CCOCC1,8.11
10,O=C(CN1CCCCCC1)Nc1ccccc1Cl,11
11,COCCn1cc(C(=O)NCc2ccco2)c2c3ccccc3n(C)c2c1=O,5.73
12,Br.NS(=O)(=O)c1ccc(Nc2nc(-c3ccccc3)cs2)cc1,-5.85
13,Cc1c(NC(=O)c2ccc(Cl)c(S(=O)(=O)N3CCCCC3)c2)c(=O)n(-c2ccccc2)n1C,6.7
14,O=C(CN1C(=O)NC2(CCCC2)C1=O)OCCOc1ccc(F)cc1,-0.824
15,CCOC(=O)c1oc2ccccc2c1NC(=O)CN1CCOCC1,6.9
16,Cc1oc(-c2ccccc2)cc1C(=O)NC(Cc1c[nH]c2ccccc12)C(=O)O (stereo not drawn),6.75
17,Cc1ccc(NS(=O)(=O)c2ccc3c(c2)C(=O)c2ccccc2C3=O)c(C)c1,12.8
18,Cc1cc(=O)n(CC(=O)Nc2cc(Cl)ccc2C)c(C(C)C)n1,14.6
19,O=C(c1ccco1)N1CCN(Cc2nc3ccccc3c(=O)n2-c2ccc(F)cc2)CC1,2.78
20,COc1ccc(Nc2nc(NN)nc(C)c2[N+](=O)[O-])cc1,13.2
21,COc1ccc(S(=O)(=O)N2CCC(N3CCN(c4ccccc4OC)CC3)CC2)cc1,-11.6
22,CCCSc1nc(SCC(=O)NCc2ccccc2)c2c3c(sc2n1)COC(C)(CC)C3 (stereo not drawn),7.78

row,Compound,"hERG current change (%, negative = inhibition) at 1uM [%]"
1,COc1ccc(COCC(O)CN(Cc2ccccc2)C(C)C)cc1OC (stereo not drawn),13.8
2,CN(C)c1ccc(C=C2C(=O)OC(C)(C)OC2=O)cc1,5.16
3,Cn1c(=O)[nH]c(=O)c2c1nc(N1CCNCC1)n2CCOc1ccccc1,3.48
4,CCOc1ccccc1/C=C/C(=O)NCC(=O)N1CCC(N(C)C2CCCCC2C)CC1 (stereo not drawn),-28.3
5,CS(=O)(=O)N1CCc2cc(C(=O)N3CCN(c4cccc(Cl)c4)CC3)ccc21,15.3
6,Cc1nn(-c2ccccc2)c(C)c1/C=N/n1c(-c2ccc(Cl)cc2)n[nH]c1=S,0.377
7,CCn1c(SCC(=O)Nc2nonc2C)nnc1-c1ccoc1C,7.63
8,COC(=O)Cc1c(O)ccn(Cc2ccccc2OC)c1=O,10.5
9,CCOc1ccc(C2CC(c3ccc(OC)c(OC)c3)n3nc(N)nc3N2)cc1 (stereo not drawn),-0.285
10,CCOC(=O)Cc1nnn(CC(=O)OCC)n1,5.32
11,CC(C)(C)C(=O)N1N=C(c2cccc(NS(C)(=O)=O)c2)CC1c1cccs1 (stereo not drawn),7.27
12,O=S(=O)(Nc1ccc(S(=O)(=O)Nc2ncccn2)cc1)c1ccc(Cl)cc1,9.27
13,CCOC(=O)CC(NS(=O)(=O)c1ccc2[nH]c(=O)sc2c1)c1ccc(C)cc1.Cl (stereo not drawn),8.03
14,Cc1cccn2c(=O)c3cc(C(=O)NCc4ccc(F)cc4)c(=N)n(CC4CCCO4)c3nc12 (stereo not drawn),-81.8
15,COc1cc2c(cc1OC)C(c1ccccc1C(F)(F)F)CC(=O)N2 (stereo not drawn),3.75
16,CCOc1ccccc1N1CC(C(=O)Nc2c(C)n(C)n(-c3ccccc3)c2=O)CC1=O (stereo not drawn),16.1
17,CCOC(=O)C1=C(COC(=O)CCc2ccccc2)NC(=O)NC1C (stereo not drawn),-4.01
18,COC(C/C=C\[C@H](O)[C@H](C)OCc1ccccc1)OC,-3.51
19,CCS(=O)(=O)Nc1cccc(-c2cn3c(n2)SCC3)c1,26.1
20,Cc1ccccc1NS(=O)(=O)c1ccc(N2CCCC2=O)cc1,8.45
21,COCCCNc1nc2c(c(=O)n(Cc3ccc(OC)cc3)c(=O)n2C)n1C,14.3
